Measurements from PubChem BioAssay AID485313 (National Center for Advancing Translational Sciences (NCATS), 2010).
The campaign covered roughly 320,000 compounds. About 7,600 (2.4%) were called active. The inconclusive results got no clear call from the source; some entries with a clear call stand among them for comparison. The call rests on the fitted dose curve; in most records, active means well fitted activation curve with a large enough effect; inconclusive means small, poorly fitted or top-dose-only effect; inactive means no such curve, though single readings can be large or run the other way. Where the call is inconclusive, the potency comes from a doubtful curve fit.

assay: qHTS Assay for NPC1 Promoter Activators; details: Huh7 NPC1 promoter luciferase reporter, 24 h; series mostly up to 9.22 µM; further: nearly all actives have a fitted effect of over 60% in size;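 on activation: reporter is driven by a mutant NPC1 promoter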
In short: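 Stably transfected Huh7 (NPC1 promoter→luciferase), 1500 cells/well in Opti-MEM + 10% FBS, 2 h settle, then compound 24 h at 37 °C. Luminescence after 10 min with Amplite reagent.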
Potency means the concentration at half of the fitted maximal effect; tags describe the fitted curve by direction and shape.

Potency, active:
CC(=O)c1c(C)nc(-c2ccc(Cl)cc2)nc1N=CN(C)C 3.98 µM

Potency, inconclusive:
C=CCSc1nnc(NC(=O)c2ccc(N3CCCC3=O)cc2)s1 2.82 µM [activator, partial curve]
O=C(CSc1nnc(NC(=O)c2ccco2)s1)Nc1cccc(F)c1 3.98 µM [activator, partial curve]
CC(=O)Nc1ccccc1C(=O)C(=O)Nc1cccc(Br)c1 3.55 µM [activator, single point]
CN1CCN(c2nc(-c3cc4ccccc4o3)cs2)CC1 3.16 µM [activator, partial curve]
O=C(Nc1cccnc1)c1noc2c1CCCC2 3.55 µM [activator, single point]
CCOc1cc(C2Nc3ccccc3NC3=C2C(=O)CC(C)(C)C3)ccc1O (stereo not given) 5.62 µM [activator, single point]
Brc1ccc(-c2cn3cccnc3n2)cc1 2.24 µM [activator, partial curve]
O=C(Nc1ccc2c(c1)OCCO2)C(=O)c1c[nH]c2ccccc12 0.562 µM [activator, partial curve]
COc1cccc(N/C(C)=C/C(=O)c2ccc(Br)cc2)c1 3.16 µM [activator, partial curve]
CCOc1ccccc1NC(=O)c1ccc2[nH]c(C)c(C)c2c1 3.55 µM [activator, single point]
C=CCc1cccc2cc(C(=O)Nc3cccc(C(=O)O)c3)c(=O)oc12 3.16 µM [activator, single point]
COc1ccc2nc(/N=C(\N)NC(=O)C(C)(C)C)nc(C)c2c1 3.55 µM [activator, single point]
O=C/C=C/c1c(-c2ccccc2)cc2oc3ccccc3cc1-2 3.55 µM [activator, single point]

Potency, inactive:
COc1ccc(Oc2c(C(F)(F)F)oc3cc(OCC(=O)O)ccc3c2=O)cc1
COc1cccc(-n2nnc3c(=O)n(CC(=O)Nc4ccc(C)cc4)cnc32)c1
O=c1[nH]c2ccc(NCc3ccccc3OCc3ccc(Cl)cc3)cc2[nH]1
CCCn1c(C(O)c2cc(OC)c(OC)c(OC)c2)nc2ccccc21 (stereo not given)
Cc1ccsc1/C=N/n1c(COc2ccccc2)n[nH]c1=S
COc1cccc(NC(=O)CSc2nc3n[nH]c(C)c3c(=N)n2-c2cccc(OC)c2)c1
